Hit rate of the full screen: of about 150,000 compounds, about 540 (0.36%) showed an effect of 50% or more. Some of the results follow.

The text below walks through data of ChEMBL document CHEMBL4888484, “Replenishing the malaria drug discovery pipeline: Screening and hit evaluation of the MMV Hit Generation Library 1 (HGL1) against asexual blood stage Plasmodium falciparum ,using a nano luciferase reporter read-out” (2022).

The test concerns Plasmodium falciparum. Kind of test: Primary screen in NF54 nanoGlo assay, in single point, at 2uM, 72h; a lower Z score goes with more inhibition. The note with it: timepoint 72 hour. It is filed as functional, Erythrocyte.
Usually % Inhibition stands for the change of the read-out against control, counted positive when it falls. `CC(CC(=O)N1CCOCC1)NC1CCN(c2ccc(Cl)c(F)c2)C1=O` (stereo not drawn): the “% Inhibition” value is listed as -21% and the Z score worked out at 2.26.
`CCN(CC)C(=O)c1ccc(COc2ccc3c(c2)[C@H](c2ccc(F)cc2)N(C(=O)C(C)C)CC3)o1`: the “% Inhibition” value is recorded as -17% and the Z score is recorded as 2.65.
For `COc1ccc([C@H](C)NCCc2cn(C)cn2)cc1`, in that order: -7% and 1.22.
As for `O=C1C[C@@H](c2ccsc2)c2ncn(-c3cc(F)cc(F)c3)c2N1`, the “% Inhibition” value was -1% and the Z score came to 0.11.
Regarding `Cc1cccc([C@H]2CCCN(C(=O)NCCc3nccs3)C2)c1`, the “% Inhibition” value is -4% and the Z score is recorded as 0.84.
For `O=C(NCCc1ccco1)c1ccc(Oc2ccc(C(F)(F)F)cn2)cc1` the same measures were -15% and 2.75.
For `CCc1ccc(C(=O)N2CCNC(=O)C2)o1`, in that order: -11% and 1.03.
For `CC[C@H](CO)NC(=O)Nc1ccc(C(C)=O)c(Cl)c1` the same measures were -16% and 1.34.
Consider `CC(=O)N(CCN1CCCCC1)[C@H]1CCCN(Cc2ccccc2C(F)(F)F)C1`, for which the “% Inhibition” value is -7% and the Z score was 0.97.
As to `Cc1nc([C@H]2CCCN2S(=O)(=O)c2c(C(F)F)c(C)nn2C)cs1`, the “% Inhibition” value is on record as -7% and the Z score was found to be 0.82.
For `CC[C@H](C)NC(=O)c1cc(C)ccc1O`, in that order: -1% and 0.11.
For `CC(=O)N1CCN(Cc2nc(C3CCCC3)no2)CC12CCCCC2`, in that order: -2% and 0.34.
On to `COc1ccc(-c2nc(CC(C)C)nn2-c2ccccn2)cc1O`, for which the “% Inhibition” value turned out to be 2% and the Z score is given as -0.37.
In the case of `COc1cccc(CN2CCC[C@H](c3cc4n(n3)CCCN(C)C4=O)C2)n1`, the “% Inhibition” value was -4% and the Z score was 0.72.
For `O=C(c1ccco1)N1CCN(C(=O)[C@H]2CCCN(c3c(-c4ccccc4)c4cc(Cl)ccc4[nH]c3=O)C2)CC1`, in that order: -34% and 4.95.
Turning to `O=C(CCc1c[nH]c2ccccc12)Nc1nc(C2CC2)n[nH]1`, the “% Inhibition” value is 1% and the Z score was -0.14.
For `O=C(CC1(O)CCCCC1)Nc1nnc(Cc2ccsc2)s1` the same measures were -5% and 0.86.
With `CCC(CC)n1nc(C(=O)N[C@H]2CCN(CC(F)F)C2)cc1C`, the “% Inhibition” value was -11% and the Z score turned out to be 1.47.
For `CC1CCCN(C(=O)Nc2ccc(N3CC(C)OC(C)C3)cc2)C1` (stereo not drawn), in that order: 3% and -0.4.
For `C[C@H]1COCCN1Cc1noc(-c2ccco2)n1`, in that order: -15% and 1.72.
Take `CN(CCCNC(=O)Nc1cccc2[nH]ncc12)C1CCCC1`: the “% Inhibition” value worked out at 4% and the Z score is -0.48.
Take `CN1CCN(CC2(CNc3ccc(C(N)=O)cn3)CC2)CC1`: the “% Inhibition” value came to 3% and the Z score was -0.37.
For `CC(=O)NCCCC(=O)NCCCn1ccnc1`, in that order: 5% and -1.01.
`COc1ccc(Oc2ncc(-c3ccc(C(=O)Nc4cc(C)cc(C)c4)cc3)cn2)cc1`: the “% Inhibition” value is given as -5% and the Z score amounted to 0.85.
